# Source: the supplement of paper PMC12355420
# Counter-ions that a name gives are not always drawn. This is one part of the list. Cut-off read from the data, not from the text of the source: active = 0.5 or less and inactive = the rest. Most values come without repeats; read them as rough.
# Assays:
# Details in all cases: 50 µM; 24 h
# [1] = system: HeLa VPS33A reporter cells; experiment: relative cell viability (CellMask signal) vs DMSO (fraction of DMSO); higher = less cytotoxic;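 note: primary screen of an FDA-approved drug library in HeLa reporter cells in 96-well format, CellMask signal normalized to DMSO-treated wells set as 1, under 0.5 deemed highly cytotoxic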
# [2] = system: HeLa VPS33A R498W KI + HA-SDC1-FLAG; experiment: relative GAG core protein HA-SDC1 amount per cell number vs DMSO (fraction of DMSO); higher = more SDC1 (GAG core protein);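 note: HA-SDC1 level read out by In-Cell Western staining with an anti-HA antibody against the N-terminal tag, screening FDA-approved library drugs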
# [3] = system: HeLa VPS33A KO + NLuc-VPS33A R498W; experiment: relative mutant VPS33A R498W amount (NanoLuc luminescence) vs DMSO (fraction of DMSO); HeLa model of a glycosaminoglycan (GAG) storage disease; KI is knock-in and KO knock-out; SDC1 is syndecan 1; higher = higher mutant VPS33A level;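 note: screen of an FDA-approved drug library, NanoLuc luminescence read after lysing the treated cells, taken as a measure of mutant VPS33A protein stability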
Compound,relative cell viability [1],relative GAG core protein HA-SDC1 amount per cell number [2],relative mutant VPS33A R498W amount [3]
COc1cc(C(=O)O)ccc1O [Vanillic acid],1.11,inactive: 0.935,0.917
OCCN1C[C@H](O)[C@@H](O)[C@H](O)[C@H]1CO [Miglitol],0.972,inactive: 0.908,1.57
CN(C)C(=O)c1cc2cnc(Nc3ccc(N4CCNCC4)cn3)nc2n1C1CCCC1,0.513,active: 0.454,1.51
CC[C@H](C)[C@H](NC(=O)[C@H](Cc1ccc(O)cc1)NC(=O)[C@@H](NC(=O)[C@H](CCCNC(=N)N)NC(=O)[C@@H](N)CC(=O)O)C(C)C)C(=O)N[C@@H](Cc1cnc[nH]1)C(=O)N1CCC[C@H]1C(=O)N[C@@H](Cc1ccccc1)C(=O)O [Angiotensin II],1.4,inactive: 0.905,0.848
Oc1cc(O)c2c(c1)O[C@H](c1ccc(O)c(O)c1)[C@H](O)C2 [(-)-epicatechin],1.08,inactive: 0.689,1.06
Cc1cc(C)cc(OCC2CNC(=O)O2)c1 (configuration not stated) [Metaxalone],0.949,inactive: 0.669,1.22
CN(N=O)C(=O)N[C@@H]1[C@@H](O)[C@H](O)[C@@H](CO)O[C@@H]1O [Streptozocin],1.05,inactive: 1.56,1.13
CC(CNC(=O)c1cccnc1)NC(=O)c1cccnc1 (configuration not stated) [Nicaraven],0.864,inactive: 0.984,1.22
O=C1CCC(N2C(=O)c3ccccc3C2=O)C(=O)N1 (configuration not stated) [Thalidomide],1.08,inactive: 1.29,1.22
C[N+](C)(CCOc1ccccc1)Cc1ccccc1.O=C([O-])c1cc2ccccc2cc1O [Bephenium Hydroxynaphthoate],1.28,inactive: 0.944,0.604
CCCOc1ccc(C(=O)OCCN(CC)CC)cc1N [Proparacaine HCl],1.09,inactive: 0.879,1.35
Cc1ccc(C(=O)Nc2ccc(S(=O)(=O)O)c3cc(S(=O)(=O)O)cc(S(=O)(=O)O)c23)cc1NC(=O)c1cccc(NC(=O)Nc2cccc(C(=O)Nc3cc(C(=O)Nc4ccc(S(=O)(=O)O)c5cc(S(=O)(=O)O)cc(S(=O)(=O)O)c45)ccc3C)c2)c1 [Suramin hexasodium salt],1.36,inactive: 0.608,0.966
CC(=O)N[C@H]1[C@H]([C@H](O)[C@H](O)CO)OC(C(=O)O)=C[C@@H]1NC(=N)N [Zanamivir],0.984,inactive: 0.961,1.18
O=NN(CCCl)C(=O)NCCCl [Carmustine],0.963,inactive: 0.825,0.853
Nc1nccs1 [Aminothiazole],1.07,inactive: 1.23,1.18
Cc1ncc(COP(=O)(O)O)c(C=O)c1O [Pyridoxal 5 phosphate],1.04,inactive: 0.868,1.41
O=C([O-])C(O)[C@H](O)[C@@H](O)[C@H](O)[C@H](O)CO.O=C([O-])C(O)[C@H](O)[C@@H](O)[C@H](O)[C@H](O)CO.[Ca+2] (some centres not stated) [Calcium Gluceptate],1.5,inactive: 1.48,0.861
CN1CCC(=C2c3ccccc3CCn3c(C=O)cnc32)CC1 [Alcaftadine],0.958,inactive: 0.884,1.17
Nc1nc2[nH]cc(CCc3ccc(C(=O)N[C@@H](CCC(=O)O)C(=O)O)cc3)c2c(=O)[nH]1 [Pemetrexed disodium hemipenta hydrate],1.08,inactive: 1.7,1.06
Cc1[nH]cnc1CN1CCc2c(c3ccccc3n2C)C1=O [Alosetron Hydrochloride],1.16,inactive: 1.28,0.892
C[C@@H]1C(=O)O[C@H]2C[C@@]34[C@H]5C[C@@H](C(C)(C)C)[C@]36[C@@H](OC(=O)[C@@H]6O)O[C@@]4(C(=O)O5)[C@]21O [Ginkgolide A],1.05,inactive: 0.844,1.37
NC(=O)OCC(COC(N)=O)c1ccccc1 [Felbamate],1.2,inactive: 0.709,1.25
COc1ccc2c(c1)C(=O)N(CCc1ccc(S(=O)(=O)NC(=O)NC3CCCCC3)cc1)C(=O)C2(C)C [Gliquidone],0.956,inactive: 0.526,0.566
CCCCC(F)(F)[C@@]1(O)CC[C@H]2[C@@H](CC(=O)[C@@H]2CCCCCCC(=O)O)O1 [Lubiprostone],1.03,inactive: 0.877,1.39
